{"source": "PubChem BioAssay AID488969", "about": "(Vanderbilt High Throughput Screening Facility, 2010)", "note": "In all, about 110,000 compounds were measured (“z-score”: median about -0.1, highest 2% from about 2 on). The list shows a part of the results. Activity calls are given as the source filed them.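 How the source made its calls: active means z-score in the third read window above 3 or below -3; inactive means the rest.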", "data": [{"molecular_target": "Metabotropic glutamate receptor 8 (Rattus norvegicus) (UniProt P70579)", "sequence (P70579 whole entry, looked up)": "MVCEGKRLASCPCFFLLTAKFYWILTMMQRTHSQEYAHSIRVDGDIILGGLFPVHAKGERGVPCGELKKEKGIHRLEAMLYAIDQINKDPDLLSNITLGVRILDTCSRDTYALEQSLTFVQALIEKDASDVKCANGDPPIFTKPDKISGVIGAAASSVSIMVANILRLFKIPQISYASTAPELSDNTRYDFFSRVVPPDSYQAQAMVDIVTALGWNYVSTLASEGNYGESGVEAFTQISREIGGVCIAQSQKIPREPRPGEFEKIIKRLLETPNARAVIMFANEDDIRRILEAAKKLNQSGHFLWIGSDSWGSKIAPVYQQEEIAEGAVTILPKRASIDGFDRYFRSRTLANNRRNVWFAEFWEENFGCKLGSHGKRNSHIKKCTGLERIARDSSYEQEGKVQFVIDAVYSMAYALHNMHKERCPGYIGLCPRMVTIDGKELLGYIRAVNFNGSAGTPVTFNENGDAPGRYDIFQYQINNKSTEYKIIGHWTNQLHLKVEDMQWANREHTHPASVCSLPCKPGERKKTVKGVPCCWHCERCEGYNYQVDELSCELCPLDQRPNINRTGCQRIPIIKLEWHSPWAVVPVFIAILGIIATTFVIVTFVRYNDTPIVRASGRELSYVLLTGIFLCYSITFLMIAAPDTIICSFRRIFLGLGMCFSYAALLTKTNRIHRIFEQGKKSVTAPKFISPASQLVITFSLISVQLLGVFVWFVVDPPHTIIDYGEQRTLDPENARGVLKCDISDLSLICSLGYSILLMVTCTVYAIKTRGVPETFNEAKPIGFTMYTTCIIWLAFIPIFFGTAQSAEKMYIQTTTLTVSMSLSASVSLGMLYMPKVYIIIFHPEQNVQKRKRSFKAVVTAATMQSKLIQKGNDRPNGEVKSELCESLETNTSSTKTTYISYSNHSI", "assay": "mGluR8 Gi/Go-coupled signaling modulation – cell-based, rat, thallium flux, HTS, primary screen (AID 488969)", "conditions": "HEK293 rat mGluR8, GIRK (G protein-gated inwardly rectifying potassium channel) thallium flux, FluoZin2; at 10 µM; stronger effect = higher value; submaximal glutamate (EC20) added with thallium", "values": [{"smiles": "CCCC(=O)Nc1c(C)nn(C(=O)CCC)c1C", "z-score": 1.38}, {"smiles": "O=C(CNC(=O)c1ccco1)N/N=C/c1ccc(O)c([N+](=O)[O-])c1", "z-score": -0.284}, {"smiles": "CC(=O)Nc1cccc(C(=O)OC(C(=O)c2ccc(C)cc2)c2ccccc2)c1", "note": "(configuration not stated)", "z-score": 0.508}, {"smiles": "O=C(CSc1nc2cc(Cl)ccc2o1)NCCc1ccccc1", "z-score": -0.346}, {"smiles": "CCOC(=O)N1CCN(c2cc(=O)n(C3CCCCC3)c(=O)[nH]2)CC1", "z-score": 0.0254}, {"smiles": "Cc1cc(C)n2nc(SCC(=O)N/N=C/c3ccccc3F)nc2n1", "z-score": 0.0121}, {"smiles": "O=C(CSc1ccc(Cl)cc1)Nc1cccc(-c2nnc(-c3ccco3)o2)c1", "z-score": -0.176}, {"smiles": "S=C(NCCc1ccccc1)NCc1cccs1", "z-score": 0.587}, {"smiles": "O=C(CCN1C(=O)c2ccccc2C1=O)NC(=S)Nc1cccc(Cl)c1", "z-score": 0.175}, {"smiles": "CCOc1ccccc1C(=O)NCCC(=O)O", "z-score": 0.294}, {"smiles": "CCCCCn1cnc2c(sc3nc4c(cc32)CSC(C)(C)C4)c1=O", "z-score": 0.00817}, {"smiles": "O=C(Cn1nnc(-c2cccs2)n1)NCCc1ccccc1", "z-score": -0.11}, {"smiles": "Cc1cc(=O)n(CCC(=O)O)c2ccccc12", "z-score": -1.19}, {"smiles": "CCCn1nnnc1NCc1ccccc1OCc1cccs1", "z-score": 0.0615}, {"smiles": "CS(=O)(=O)N(CCc1ccccc1)CC(=O)Nc1ccc(OCc2ccccc2)cc1", "z-score": 1.43}, {"smiles": "O=C(NCC(c1ccco1)N1CCCC1)c1ccccc1F", "note": "(configuration not stated)", "z-score": 0.262}, {"smiles": "Cc1ccc(S(=O)(=O)NNC(=O)c2snnc2C)cc1", "z-score": 0.0819}, {"smiles": "Cc1csc(NC(=O)CSc2nc(C)nc3c2c(=O)n(C)c(=O)n3C)n1", "z-score": -0.477}, {"smiles": "COc1cccc(-n2c(C)nc3cc(C(=O)O)ccc32)c1", "z-score": -0.132}, {"smiles": "Cc1ccc(Cn2ccc(NC(=O)c3cc4nc(-c5ccco5)cc(C(F)(F)F)n4n3)n2)cc1", "z-score": 0.0612}, {"smiles": "CCOC(=O)CSc1nc2sc(C)c(C)c2c(=O)[nH]1", "z-score": -0.485}, {"smiles": "Cc1cccn2cc(CSc3ccccc3N)nc12", "z-score": -0.241}, {"smiles": "CCc1ccccc1N1CCN(S(=O)(=O)c2cc(OC)ccc2OC)CC1", "z-score": -0.412}, {"smiles": "Cc1nn(Cc2ccccc2)c2c1C(c1cccc(Cl)c1)C(C#N)=C(N)O2", "note": "(configuration not stated)", "z-score": -0.363}, {"smiles": "CCn1c(SCC(=O)Nc2ccc(C)cc2)nnc1-c1ccc(O)cc1", "z-score": -0.0225}, {"smiles": "COc1cccc(OCC(=O)NNC(=O)c2ccc(-c3ccccc3)cc2)c1", "z-score": 0.902}, {"smiles": "CCC(C)(C)n1nnnc1CN1CCC(NC(=O)c2ccc(Br)cc2)CC1", "z-score": -0.157}, {"smiles": "COc1cccc(-c2nn(-c3ccccc3)cc2C(=O)n2nnc3ccccc32)c1", "z-score": -0.256}, {"smiles": "Cc1cccc(C)c1OCCCCn1cnc2ccccc2c1=O", "z-score": -0.233}, {"smiles": "COc1ccc(-n2c(C)c3c(OC)cccc(=O)c3c2C)cc1", "z-score": -0.867}, {"smiles": "O=C(CN1CCC(n2nnc3cc(F)ccc32)CC1)NCCc1nc2ccccc2[nH]1", "z-score": -0.24}, {"smiles": "Cn1c(C(=O)NCC2CCCO2)cc2c(=O)[nH]c3ccccc3c21", "note": "(configuration not stated)", "z-score": 0.496}, {"smiles": "COC(=O)c1nnn(-c2nonc2N)c1-c1cccs1", "z-score": 0.385}, {"smiles": "CCN(CCCNC(=O)CCNC(=O)Cn1cnc2ccccc2c1=O)c1cccc(C)c1", "z-score": 0.0158}, {"smiles": "COc1ccc2nc(NC(=O)C3CCCN(S(=O)(=O)c4cccc5nonc45)C3)sc2c1", "note": "(configuration not stated)", "z-score": 0.126}, {"smiles": "O=C(NCc1ccccc1)N[C@@H](Cc1ccccc1)C(=O)O", "z-score": 0.167}, {"smiles": "O=C(Nc1cccc(Cl)c1)Nc1cccc(Cl)c1", "z-score": 0.0262}, {"smiles": "C=C(C)COc1ccc(-c2[nH]ncc2Oc2ccccc2OCC)c(O)c1", "z-score": -1.64}, {"smiles": "CC(C)Nc1nc(Cl)nc(NN(C)c2nc(N(C)C)nc(N(C)C)n2)n1", "z-score": 0.269}, {"smiles": "CC(NC(=O)CSC1=NCCS1)c1ccccc1", "note": "(configuration not stated)", "z-score": 0.151}, {"smiles": "O=C(Cn1cc(C(F)(F)F)ccc1=O)Nc1cccc(S(=O)(=O)N2CCOCC2)c1", "z-score": -0.446}, {"smiles": "COC(=O)C(Cc1ccc(O)cc1)NC(=O)c1ccccc1", "note": "(configuration not stated)", "z-score": -0.0744}, {"smiles": "Cc1cc(C)cc(NC(=O)c2ccc3nc[nH]c3c2)c1", "z-score": -0.137}, {"smiles": "Cc1c(C(=O)N2CCOCC2)[nH]c2c1C(=O)CC(c1ccccc1Cl)C2", "note": "(configuration not stated)", "z-score": -0.491}, {"smiles": "NS(=O)(=O)c1ccc(NC(=S)NC2CCCC2)cc1", "z-score": 0.0124}, {"smiles": "O=C(Cn1cc(C(=O)c2ccco2)c2ccccc21)Nc1ccccc1", "z-score": 0.311}, {"smiles": "COCCN1Cc2cccc(C(=O)Nc3ccc(-c4nc5ccccc5[nH]4)cc3)c2C1=O", "z-score": -0.0431}, {"smiles": "CC1CCc2nc(NC(=O)Cc3cccs3)sc2C1", "note": "(configuration not stated)", "z-score": -0.0944}, {"smiles": "CCOc1cc(C2C(C#N)=C(N)OC(C)=C2C(C)=O)cc(Br)c1O", "note": "(configuration not stated)", "z-score": -1.08}, {"smiles": "N#Cc1c(-c2ccc(F)cc2)nc2n(c1=O)CCS2", "z-score": -0.0466}, {"smiles": "COc1cccc(N2CC(C(=O)Nc3ccc(C(=O)OC(C)C)cc3)CC2=O)c1", "note": "(configuration not stated)", "z-score": -0.924}, {"smiles": "O=C(CSc1ccc(Cl)cc1Cl)N1CCC(c2nc3ccccc3s2)CC1", "z-score": -0.291}, {"smiles": "CCOc1ccc(-n2c(N)c(C(=O)NCC3CCCO3)sc2=S)cc1", "note": "(configuration not stated)", "z-score": 1.74}, {"smiles": "CC1=CC2=C(OC1N(C)C)c1cccc3cccc(c13)C2=O", "note": "(configuration not stated)", "z-score": -1.28}, {"smiles": "COc1cccc(N2CCN(C(=O)C3CCCN(S(=O)(=O)c4cnc[nH]4)C3)CC2)c1", "note": "(configuration not stated)", "z-score": 0.142}, {"smiles": "Cc1cc(Nc2nc3ccccc3nc2Cl)n(-c2ccc([N+](=O)[O-])cc2)n1", "z-score": -0.179}, {"smiles": "Cc1noc2ncnc(Oc3ccccc3)c12", "z-score": 0.141}, {"smiles": "Cc1ccc(N/C(N)=N/c2nc(CSc3ccc(C)cc3)cc(=O)[nH]2)cc1", "z-score": -0.281}, {"smiles": "CCOC(=O)c1c(NC(=O)CSc2nnc(CNc3ccc(F)cc3)o2)sc(C(C)=O)c1C", "z-score": -0.413}, {"smiles": "C=CCn1c(SCC(=O)Nc2sccc2C(N)=O)nc2ccccc2c1=O", "z-score": -0.59}, {"smiles": "COC(=O)c1cccc(NC(=S)NCCC2=CCCCC2)c1", "z-score": 0.38}, {"smiles": "S=C1CCSc2ccc(Cl)cc2N1", "z-score": "active: 9.14"}, {"smiles": "O=C(NCC1CCCO1)c1ccccn1", "note": "(configuration not stated)", "z-score": 0.397}, {"smiles": "CC(C)C[C@H](NC(=O)OC(C)(C)C)C(=O)N1CCC(C(=O)O)CC1", "z-score": -0.14}, {"smiles": "COC(=O)C1=C(C)N(C)C(C)=C(C(=O)OC)C1c1ccncc1", "z-score": -0.0829}, {"smiles": "O=C(c1cccs1)N1CCN=C1SCc1ccccc1", "z-score": -0.398}, {"smiles": "O=[N+]([O-])c1ccccc1N/N=C/c1c[nH]c2ccccc12", "z-score": -0.147}, {"smiles": "O=[N+]([O-])c1ccc(Cl)c(-c2ccc(/C=N/c3c(-c4ccco4)nc4ccccn34)o2)c1", "z-score": 0.336}, {"smiles": "O=NC1=C(c2c(O)[nH]c3ccccc23)CCCC1", "z-score": 0.537}, {"smiles": "CCOC(=O)Cc1csc(NC(=O)c2sc3nc4ccc(CC)cc4cc3c2N)n1", "z-score": -0.0625}, {"smiles": "CCC(C)(C)NC(=O)c1cc([N+](=O)[O-])ccc1N1CCOCC1", "z-score": -0.0236}, {"smiles": "CS(=O)(=O)N1CCC(C(=O)O)CC1", "z-score": 0.448}]}]}
